Data published in article PMC4336329 (PLoS ONE, 2015).
The whole screen tested about 310,000 compounds, of which about 2,200 (0.71%) showed an effect of 50% or more. Effects have a minus sign here. This is one part of the list.

Target: human ether-à-go-go-related gene (hERG) potassium channel (human, UniProt Q12809)
Assay: primary screen, population patch clamp on CHO cells stably expressing hERG

Chain of human ether-à-go-go-related gene (hERG) potassium channel (Q12809 whole entry, looked up): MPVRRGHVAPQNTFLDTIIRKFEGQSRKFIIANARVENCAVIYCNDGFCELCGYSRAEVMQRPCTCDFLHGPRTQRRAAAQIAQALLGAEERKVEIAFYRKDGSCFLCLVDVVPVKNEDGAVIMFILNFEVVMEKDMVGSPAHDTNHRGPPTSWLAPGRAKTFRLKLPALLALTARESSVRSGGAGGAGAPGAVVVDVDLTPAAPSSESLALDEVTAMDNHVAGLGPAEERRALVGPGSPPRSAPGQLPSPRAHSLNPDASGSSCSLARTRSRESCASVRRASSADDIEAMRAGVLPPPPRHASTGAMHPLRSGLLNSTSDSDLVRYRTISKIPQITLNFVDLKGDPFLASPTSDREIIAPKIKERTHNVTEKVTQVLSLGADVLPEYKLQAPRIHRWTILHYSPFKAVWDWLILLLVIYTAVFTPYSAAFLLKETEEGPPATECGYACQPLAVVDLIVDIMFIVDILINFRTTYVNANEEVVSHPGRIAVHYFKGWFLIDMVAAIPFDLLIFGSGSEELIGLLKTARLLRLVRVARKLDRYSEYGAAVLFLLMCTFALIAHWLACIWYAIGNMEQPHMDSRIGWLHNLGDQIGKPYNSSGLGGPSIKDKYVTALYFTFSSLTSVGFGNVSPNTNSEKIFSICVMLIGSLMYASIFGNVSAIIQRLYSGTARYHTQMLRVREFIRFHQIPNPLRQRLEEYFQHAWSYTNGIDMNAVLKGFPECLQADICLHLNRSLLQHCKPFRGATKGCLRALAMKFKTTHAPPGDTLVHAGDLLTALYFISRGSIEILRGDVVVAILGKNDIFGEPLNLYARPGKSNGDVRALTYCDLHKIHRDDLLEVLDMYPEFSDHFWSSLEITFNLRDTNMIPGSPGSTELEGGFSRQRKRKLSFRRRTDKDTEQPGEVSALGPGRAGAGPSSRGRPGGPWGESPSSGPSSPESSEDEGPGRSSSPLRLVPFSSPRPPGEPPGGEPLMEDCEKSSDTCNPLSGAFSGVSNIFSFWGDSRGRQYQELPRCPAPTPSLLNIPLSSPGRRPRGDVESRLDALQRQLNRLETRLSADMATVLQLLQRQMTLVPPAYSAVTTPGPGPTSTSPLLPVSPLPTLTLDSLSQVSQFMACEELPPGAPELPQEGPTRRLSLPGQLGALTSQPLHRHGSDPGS

Row | SMILES | hERG current change (%, negative = inhibition) at 1uM
1 | Fc1ccccc1OCCCN1CCOCC1 | 8.04%
2 | CCn1c(Cc2ccccc2)nnc1SCC(=O)Nc1ccccc1O | 11.4%
3 | CCOC(=O)Cc1c(C)nc(Cc2ccc(OC(C)C)cc2)[nH]c1=O | 6.06%
4 | COc1cc(CC(=O)N2CCC(n3nccc3NC(=O)C3CC3)CC2)cc(OC)c1OC | 10.8%
5 | O=c1cc(O)c2sc(Nc3ccc(F)cc3)nc2[nH]1 | 4.62%
6 | O=C(O)c1ccc(CSc2nc(-c3ccccc3)cc(C(F)(F)F)n2)cc1 | 8.91%
7 | Cc1cc(SCc2ccc(Cl)c(Cl)c2)nc(=O)[nH]1 | 8.49%
8 | CCc1c(C)nc(N)nc1Cl | 13.2%
9 | Cc1ccc(S(=O)(=O)N2CCCCC2CCNC(=O)C(=O)NCc2ccccc2)cc1 (centres unmarked) | 12.7%
10 | CCCCOc1ccc(C(=O)N2CCN(c3ncccn3)CC2)cc1 | 3.25%
11 | O=C(O)c1ccc2c(c1)SC1=NS(=O)(=O)CCN12 | 7.46%
12 | O=c1[nH]c(-c2ccco2)nc2sc3c(c12)CCCC3 | 14.7%
13 | COc1ccc(/C(O)=C2/C(=O)C(=O)N(CC3CCCO3)C2c2ccc(O)c(OC)c2)cc1 (centres unmarked) | 13.2%
14 | CC(C)NC(=O)c1onc(CSc2cccc(F)c2)c1C(=O)O | 13.3%
15 | Cc1nnc(SC(C)C(=O)Nc2ccc3c(c2)OCCO3)s1 (centres unmarked) | 15.2%
16 | COCCN(Cc1ccccc1)C(=O)c1cc(-c2ccc(OC)c(OC)c2)nc2ccccc12 | 6.54%
17 | Brc1cccc(CN2CCCCCC2)c1 | 13.2%
18 | COCCCNCCCCOc1ccc(Br)cc1Cl.O=C(O)C(=O)O | -61.5%
19 | Cc1ccc(NCc2nnc(SCC(=O)OC3CCCCC3)o2)c(C)c1 | 14.3%
20 | CN(C)/C=C(/C(=O)c1ccc(Cl)cc1Cl)S(=O)(=O)c1ccccc1 | 10.6%

Row | SMILES | hERG current change (%, negative = inhibition) at 1uM
21 | Cc1ccc(CCNS(=O)(=O)c2cnc[nH]2)cc1 | 4.11%
22 | CC(C)c1ccc(O)c(CN2CCN(c3ccccc3)CC2)c1 | 10.3%
23 | O=C1C2C3C=CC(C4CC34)C2C(=O)N1CCc1ccccc1 (centres unmarked) | 6.26%
24 | COc1cccc(NC(=O)C2CCN(C(=O)[C@@H]3Cc4ccccc4CN3C(=O)OC(C)(C)C)CC2)c1 | 19.4%
25 | CC(=O)Nc1ccc(C(=O)NN2C(=O)c3ccccc3C2=O)cc1 | 8.27%
26 | O=C(COC(=O)c1ccc(S(=O)(=O)N2CCOCC2)cc1)NC1CCCC1 | 0.799%
27 | Nc1nc(CSc2nnnn2-c2ccccc2)nc(N2CCCc3ccccc32)n1 | 9.2%
28 | Cc1cc(C(=O)Oc2ccccc2C(=O)O)c(C)o1 | 11%
29 | O=C(C[n+]1ccccc1)N/N=C/c1c(F)cccc1Cl.[Cl-] | 8.73%
30 | Cc1cc(C)c2nc(N3CCC(C(=O)N4CCN(C(=O)c5ccco5)CC4)CC3)sc2c1 | -46.9%
31 | CCOC(=O)c1ccc(Nc2cc(C)nc(-c3ccccc3O)n2)cc1 | 10.3%
32 | CSCCC(NC(=O)c1ccco1)C(=O)NCc1ccc(F)cc1 (centres unmarked) | 6.66%
33 | COc1cc(OC)cc(C(=O)Nc2cc(C)on2)c1 | 18.2%
34 | CC1CC2(CCCCC2)Nc2ccc3ccccc3c21.Cl (centres unmarked) | 9.44%
35 | COc1cc2cc(C(=O)N3CCc4ccccc4C3)[nH]c2cc1OC | 7.7%
36 | COC(=O)C1=C(c2cc3ccccc3o2)C[C@@H]2CC[C@H]1N2C | 6.69%
37 | CCOC(=O)C1=C(c2ccccc2)NC(N)=NC1c1ccc(OCc2ccc(C(=O)OC)cc2)cc1 (centres unmarked) | 3.19%
38 | COc1ccc(S(=O)(=O)N2CCN(S(=O)(=O)c3ccc(C(F)(F)F)cc3)CC2)cc1C | 4.99%
39 | COc1ccc(Cl)cc1NC(=O)C/C(C)=N/NC(=O)Cc1ccccc1 | 7.06%
40 | COc1cccc(/C(C)=N/Nc2ncc(Cl)cc2Cl)c1 | 3.21%

Row | SMILES | hERG current change (%, negative = inhibition) at 1uM
41 | CCc1nnc(NC(=O)CN2CC(C)OC(C)C2)s1 (centres unmarked) | 13.3%
42 | O=C(Cc1ccccc1)Oc1ccccc1N1C(=O)CCC1=O | 8.09%
43 | CCOc1ccc(/C=C(/NC(=O)c2ccc(Cl)cc2)C(=O)O)cc1OCC | -4.42%
44 | Cc1ccccc1NC(=O)NCCCN1CCN(C2CCCCC2)CC1 | 1.86%
45 | CC(C)C(OC(=O)/C=C/c1ccc2c(c1)OCO2)C(=O)NC(N)=O (centres unmarked) | 5.82%
46 | COc1ccc2c(c1)C(C)(CCN)C(=O)N2C (centres unmarked) | 5.06%
47 | O=S1(=O)NC[C@]23C[C@H](c4ccc(F)cc4)[C@@H](C[C@@H]21)O3 | 8.17%
48 | CC(C)OC(=O)c1cc(C(=O)c2cc(Br)ccc2O)coc1=N | 10.1%
49 | O=C(O)/C=C/c1cccc(NC(=O)c2ccccc2)c1 | 6.3%
50 | CCOC(=O)N1CCN(C(=O)C(C)NC(=O)c2ccco2)CC1 (centres unmarked) | 12.1%
51 | CCN1CCN(C(=S)c2ccc(Br)cc2)CC1 | -23.3%
52 | O=C(/C=C/c1ccc2c(c1)OCO2)Nc1nc(-c2ccc(F)cc2F)cs1 | 10.5%
53 | CC(CC(=O)NCc1ccc(Cl)cc1)c1ccccc1 (centres unmarked) | 10.4%
54 | O=C(COC(=O)Cn1cnc2ccccc21)NCc1ccc(F)cc1 | 17.3%
55 | CC(=O)N1CCCc2cc(S(=O)(=O)N3CCc4ccccc4C3)ccc21 | 2.29%
56 | CN1CCN(CCC(=O)Nc2ccc(OCc3ccccc3)cc2)CC1 | -20.8%
57 | Cc1cccc(C)c1NC(=O)Nc1ccc(S(N)(=O)=O)cc1 | 18.5%
58 | Cc1ccc2nc(SCC(=O)Nc3cccc(F)c3)nc(=O)n2c1 | -9.78%
59 | Cc1ccccc1NCC(=O)N/N=C/C(Br)=C/c1ccccc1 | 8.19%
